The supplement of paper PMC4604168 (melanoma cell lines)
The list shows a part of the results. Single values are uncertain, as repeats are few or missing.

Key:
Assay in all cases: cell count relative to DMSO control; melanoma cells; higher = more viable cells
Details in all cases: library dose: low library concentration; 72 h
[1] = system: MZ2-MEL
[2] = system: MeWo
[3] = system: RPMI7951
[4] = system: RVH-421
[5] = system: SkMel28
[6] = system: SkMel2
[7] = system: SkMel30
[8] = system: UACC62
[9] = system: SkMel5
[10] = system: UACC257
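Note: cell number obtained by counting DAPI-stained nuclei in high-throughput microscope images with image analysis software, screen run in 1,536-well plates.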

Row | SMILES | cell count [1] [%] | cell count [2] [%] | cell count [3] [%] | cell count [4] [%] | cell count [5] [%] | cell count [6] [%] | cell count [7] [%] | cell count [8] [%] | cell count [9] [%] | cell count [10] [%]
1 | O=C(Nc1cc(C(F)(F)F)cc(C(F)(F)F)c1)c1cc(Cl)ccc1O + CNC(=O)c1cc(Oc2ccc(NC(=O)Nc3ccc(Cl)c(C(F)(F)F)c3)cc2)ccn1 [sorafenib] (first compound 0.016 µM, partner dose 0.4 µM) | 83.6 | 87.5 | 88.5 | 102 | 81.3 | 107 | 89.9 | 91.3 | – | –
2 | O=C(Nc1cc(C(F)(F)F)cc(C(F)(F)F)c1)c1cc(Cl)ccc1O + C[C@@H](Oc1cc(-c2cnn(C3CCNCC3)c2)cnc1N)c1c(Cl)ccc(F)c1Cl [Crizotinib] (first compound 0.016 µM, partner dose 0.2 µM) | 111 | 93.1 | 134 | 115 | 95.4 | 110 | 99 | 93.3 | – | –
3 | O=C(Nc1cc(C(F)(F)F)cc(C(F)(F)F)c1)c1cc(Cl)ccc1O + Cc1nc(Nc2ncc(C(=O)Nc3c(C)cccc3Cl)s2)cc(N2CCN(CCO)CC2)n1 [dasatanib] (first compound 0.016 µM, partner dose 0.004 µM) | 78.5 | 86.4 | 64.2 | 78.5 | 64.1 | 96.4 | 92.7 | 103 | – | –
4 | O=C(O)c1ccc2c(c1)nc(Nc1cccc(Cl)c1)c1ccncc12 + Nc1ncn([C@H]2C[C@H](O)[C@@H](CO)O2)c(=O)n1 [decitabine] (first compound 0.4 µM, partner dose 0.1 µM) | 77.7 | 83.7 | 79.4 | 77.3 | 93.9 | 95 | 84.9 | 71 | – | –
5 | O=C(Nc1cc(C(F)(F)F)cc(C(F)(F)F)c1)c1cc(Cl)ccc1O + C[C@@H](N)c1ccc(C(=O)Nc2ccnc3[nH]ccc23)cc1 [RKI983] (first compound 0.016 µM, partner dose 0.4 µM) | 88.6 | 67.7 | 85.5 | 83.8 | 60.8 | 108 | 129 | 103 | – | –
6 | O=C(O)[C@@H]1[O][Sb](=[O])([O][Sb]2(=[O])[O][C@H]([C@H](O)CO)[C@H](O)[C@H](C(=O)O)[O]2)[O][C@H]([C@H](O)CO)[C@@H]1O (some centres undefined) [stibogluconate] + Nc1ccn([C@@H]2O[C@H](CO)[C@@H](O)C2(F)F)c(=O)n1 [gemcitabine] (first compound 2 µM, partner dose 0.0004 µM) | 101 | 95.3 | 93.6 | 90.8 | 90.2 | 89.1 | 84.2 | 85.9 | – | –
7 | O=C(Nc1cc(C(F)(F)F)cc(C(F)(F)F)c1)c1cc(Cl)ccc1O + C#Cc1cccc(Nc2ncnc3cc(OCCOC)c(OCCOC)cc23)c1 [erlotinib] (first compound 0.016 µM, partner dose 0.8 µM) | 93.3 | 82 | 108 | 110 | 88.9 | 96 | 105 | 93.7 | – | –
8 | O=C(O)c1ccc2c(c1)nc(Nc1cccc(Cl)c1)c1ccncc12 + Cn1nnc2c(C(N)=O)ncn2c1=O [temozolomide] (first compound 0.4 µM, partner dose 2 µM) | 91.6 | 87.4 | 101 | 126 | 92.7 | 94.8 | 101 | 77.6 | – | –
9 | O=C(O)c1ccc2c(c1)nc(Nc1cccc(Cl)c1)c1ccncc12 + CC(=O)c1c(C)c2cnc(Nc3ccc(N4CCNCC4)cn3)nc2n(C2CCCC2)c1=O [palbociclib] (first compound 0.4 µM, partner dose 0.04 µM) | 84 | 76 | 82.7 | 99.4 | 77.2 | 87.7 | 74.4 | 72.6 | – | –
10 | O=C(Nc1cc(C(F)(F)F)cc(C(F)(F)F)c1)c1cc(Cl)ccc1O + CC(C)C[C@H](NC(=O)[C@H](Cc1ccccc1)NC(=O)c1cnccn1)B(O)O [Bortezomib] (first compound 0.016 µM, partner dose 0.001 µM) | 97.3 | 82.2 | 111 | 104 | 85.6 | 99.3 | 104 | 85.2 | – | –
11 | O=C(O)c1ccc2c(c1)nc(Nc1cccc(Cl)c1)c1ccncc12 + C=CCNC1=C2C[C@@H](C)C[C@H](OC)[C@H](O)[C@@H](C)/C=C(\C)[C@H](OC(N)=O)[C@@H](OC)/C=C\C=C(/C)C(=O)NC(=CC1=O)C2=O [Tanespimycin] (first compound 0.4 µM, partner dose 0.002 µM) | 85.7 | 90.8 | 122 | 111 | 103 | 96.3 | 72.2 | 90.5 | – | –
12 | O=C(O)[C@@H]1[O][Sb](=[O])([O][Sb]2(=[O])[O][C@H]([C@H](O)CO)[C@H](O)[C@H](C(=O)O)[O]2)[O][C@H]([C@H](O)CO)[C@@H]1O (some centres undefined) [stibogluconate] + CNC(=O)c1cc(Oc2ccc(NC(=O)Nc3ccc(Cl)c(C(F)(F)F)c3)cc2)ccn1 [sorafenib] (first compound 2 µM, partner dose 0.4 µM) | 79.1 | 99.6 | 92.7 | 92.2 | 114 | 99 | 103 | 99.6 | – | –
13 | O=C(Nc1cc(C(F)(F)F)cc(C(F)(F)F)c1)c1cc(Cl)ccc1O + C=C(c1ccc(C(=O)O)cc1)c1cc2c(cc1C)C(C)(C)CCC2(C)C [Bexarotene] (first compound 0.016 µM, partner dose 2 µM) | 93 | 87.9 | 101 | 112 | 86.9 | 104 | 108 | 95.9 | – | –
14 | O=C(O)c1ccc2c(c1)nc(Nc1cccc(Cl)c1)c1ccncc12 + Nc1nc(F)nc2c1ncn2[C@@H]1O[C@H](CO)[C@@H](O)[C@@H]1O [fludarabine] (first compound 0.4 µM, partner dose 0.2 µM) | 93.6 | 37.6 | 111 | 190 | 65 | 9.26 | 20.6 | 104 | – | –
15 | O=C(O)[C@@H]1[O][Sb](=[O])([O][Sb]2(=[O])[O][C@H]([C@H](O)CO)[C@H](O)[C@H](C(=O)O)[O]2)[O][C@H]([C@H](O)CO)[C@@H]1O (some centres undefined) [stibogluconate] + CC(=O)c1c(C)c2cnc(Nc3ccc(N4CCNCC4)cn3)nc2n(C2CCCC2)c1=O [palbociclib] (first compound 2 µM, partner dose 0.04 µM) | 83.7 | 89.2 | 68.5 | 86 | 94 | 87.1 | 54.3 | 74.8 | – | –
16 | O=C(O)c1ccc2c(c1)nc(Nc1cccc(Cl)c1)c1ccncc12 + CCCS(=O)(=O)Nc1ccc(F)c(C(=O)c2c[nH]c3ncc(Cl)cc23)c1F [PLX4720] (first compound 0.4 µM, partner dose 0.08 µM) | 79.7 | 89.9 | 86.4 | 101 | 88.8 | 102 | 91.6 | 65.6 | – | –
17 | O=C(O)c1ccc2c(c1)nc(Nc1cccc(Cl)c1)c1ccncc12 + Cn1c(Nc2ccc(C(F)(F)F)cc2)nc2cc(Oc3ccnc(-c4ncc(C(F)(F)F)[nH]4)c3)ccc21 [CHIR265] (first compound 0.4 µM, partner dose 0.08 µM) | 74.3 | 60.9 | 64.6 | 75.2 | 73.2 | 75.9 | 59 | 63.4 | – | –
18 | Cc1cc(N2CCOCC2)cc2[nH]c(-c3c(NC[C@@H](O)c4cccc(Cl)c4)cc[nH]c3=O)nc12 + N#Cc1c(O)c2c(-c3ccc(-c4ccccc4O)cc3)csc2[nH]c1=O [A769662] (first compound 0.2 µM, partner dose 2 µM) | 103 | 99.1 | 88.2 | 120 | 92.8 | – | 105 | 88.8 | 83 | 72.4
19 | O=C(Nc1cc(C(F)(F)F)cc(C(F)(F)F)c1)c1cc(Cl)ccc1O + C[C@]1(O)C[C@@H](c2nc(-c3ccc4ccc(-c5ccccc5)nc4c3)c3c(N)nccn32)C1 [OSI906] (first compound 0.016 µM, partner dose 0.4 µM) | 88.4 | 97.6 | 95 | 101 | 77.9 | 85.5 | 80.6 | 78.9 | – | –
20 | O=C(Nc1cc(C(F)(F)F)cc(C(F)(F)F)c1)c1cc(Cl)ccc1O + CN(c1ncccc1CNc1nc(Nc2ccc3c(c2)CC(=O)N3)ncc1C(F)(F)F)S(C)(=O)=O [PF562271] (first compound 0.016 µM, partner dose 0.08 µM) | 95.9 | 106 | 85.2 | 90.8 | 81 | 90.5 | 95.1 | 103 | – | –
21 | O=C(O)[C@@H]1[O][Sb](=[O])([O][Sb]2(=[O])[O][C@H]([C@H](O)CO)[C@H](O)[C@H](C(=O)O)[O]2)[O][C@H]([C@H](O)CO)[C@@H]1O (some centres undefined) [stibogluconate] + Cn1nnc2c(C(N)=O)ncn2c1=O [temozolomide] (first compound 2 µM, partner dose 2 µM) | 93.4 | 112 | 85.5 | 103 | 77.9 | 105 | 77.7 | 79.4 | – | –
22 | O=C(O)[C@@H]1[O][Sb](=[O])([O][Sb]2(=[O])[O][C@H]([C@H](O)CO)[C@H](O)[C@H](C(=O)O)[O]2)[O][C@H]([C@H](O)CO)[C@@H]1O (some centres undefined) [stibogluconate] + COCC[n+]1c2c(n(Cc3cnccn3)c1C)C(=O)c1ccccc1C2=O [YM155] (first compound 2 µM, partner dose 0.0004 µM) | 70.4 | 87.5 | 105 | 102 | 79.9 | 89.1 | 84.4 | 87.4 | – | –
23 | Cc1cc(N2CCOCC2)cc2[nH]c(-c3c(NC[C@@H](O)c4cccc(Cl)c4)cc[nH]c3=O)nc12 + CCCCCCCCCCCC1=C(O)C(=O)C=C(O)C1=O [Embelin] (first compound 0.2 µM, partner dose 1.2 µM) | 101 | 90.2 | 98.7 | 118 | 92.7 | – | 80.1 | 101 | 109 | 77.9
24 | O=C(Nc1cc(C(F)(F)F)cc(C(F)(F)F)c1)c1cc(Cl)ccc1O + O=c1[nH]nc(Sc2ncc([N+](=O)[O-])s2)n1-c1ccc2c(c1)OCCO2 [BI78D3] (first compound 0.016 µM, partner dose 0.2 µM) | 104 | 103 | 85.4 | 120 | 109 | 74.9 | 94.3 | 108 | – | –
